Measurements reported in PubChem BioAssay AID463173 (ICCB-Longwood Screening Facility, Harvard Medical School, 2010).
Screen size: about 52,000 compounds; about 1,700 (3.3%) were called active. Rule as the data show it: active = survival mostly below about 52% (no sharp cut-off); inactive = mostly above about 56%. The list shows a part of the results.

What follows are compounds tested on Wild type (assay: growth inhibition of S. aureus wild type versus tarO mutant, primary screen, teichoic acid synthesis inhibitors, RN4220, OD600 (AID 463173)). Details: S. aureus RN4220 wild type/DeltatarO growth, OD600, 18 h, hits give low values, screened at 18.75 µg/mL (by protocol).

Row | SMILES | survival
1 | CCOC(=O)N1CCC(NC(=O)c2ccc3c(c2)N(Cc2ccccc2)C(=O)c2ccccc2S3=O)CC1 (stereo unspecified) | inactive: 90%
2 | CCCCN(Cc1ccccc1)S(=O)(=O)c1cc(Br)cc2c1N(C(=O)C1CC1)CC2 | inactive: 63%
3 | CCCNC(=O)CCn1nc(-c2ccccc2)c2ccccc2c1=O | inactive: 74%
4 | O=C(CSc1nnc(CNC(=O)c2ccccc2F)n1-c1ccccc1)Nc1ccccc1F | inactive: 66%
5 | CC(=O)C1=C(c2ccc(Cl)c(Cl)c2)N(C(C)=O)n2c(nnc2C2CCCCC2)S1 | inactive: 73%
6 | O=C(CCc1nnc2n(Cc3ccccc3Cl)c(=O)c3ccccc3n12)Nc1ccc(F)cc1 | inactive: 82%
7 | CCOc1ccc(OCC)c(NC(=O)c2cc(CN3CCOCC3)on2)c1 | inactive: 72%
8 | Cc1ccc(S(=O)(=O)c2cnc(SC(C)C(=O)Nc3ccccc3)[nH]c2=O)cc1 (stereo unspecified) | inactive: 82%
9 | CCC(Cn1nnc2ccccc2c1=O)NC(=O)Nc1ccc(C)cc1 (stereo unspecified) | inactive: 92%
10 | Cc1ccc(NC(=O)CCNS(=O)(=O)c2ccc(Br)s2)cc1 | inactive: 83%
11 | CCOC(=O)C1CCCN(C(=O)c2cccc(NC(=O)c3nsc4ccccc34)c2)C1 (stereo unspecified) | inactive: 99%
12 | O=C(Nc1ccccc1Cl)c1cc(S(=O)(=O)N2CCC3(CC2)OCCO3)ccc1F | inactive: 73%
13 | O=C(NCCS(=O)(=O)N1CCN(c2ccccc2F)CC1)C(c1ccccc1)c1ccccc1 | inactive: 74%
14 | COc1cc(C2C(=O)N(C3CCCCCC3)CC(=O)N2CCC2=CCCCC2)ccc1OC(C)C (stereo unspecified) | inactive: 100%
15 | CCOc1ccc(N(CC)S(=O)(=O)N2CCCC(C(=O)Nc3ccc(OC)c(OC)c3)C2)cc1 (stereo unspecified) | inactive: 110%
16 | CCn1cc2nc(SCc3ccccc3Cl)n(CCc3ccccc3)c(=O)c2n1 | inactive: 91%
17 | CC(C)COC(=O)CNc1n[nH]c(=S)[nH]c1=O | inactive: 119%
18 | Cc1ccc(-c2nc(NC(=O)CSc3ncnc4sc5c(c34)CCC(C)C5)ns2)cc1 (stereo unspecified) | inactive: 75%
19 | CCCN1C2CCCC1CC(NC(=O)c1cc(OC)c(OC)c(OC)c1)C2 (stereo unspecified) | inactive: 104%

Row | SMILES | survival
20 | CCc1ccc(NS(=O)(=O)c2ccc3[nH]cc(C(=O)NCCc4cccc(C)c4)c(=O)c3c2)cc1 | inactive: 76%
21 | COc1ccc(-n2cc(C(=O)OCc3ccc(F)c(F)c3)c3ccccc3c2=O)cc1 | inactive: 120%
22 | CCOC(=O)Cc1nnc2c(Nc3cc(C)ccc3C)nc3nonc3n12 | inactive: 106%
23 | O=C(NC1(C(F)(F)F)C(=O)Nc2c1c(=O)[nH]c(=O)n2-c1ccc(F)cc1)c1ccccc1 (stereo unspecified) | inactive: 59%
24 | COc1ccc(C2C(=O)N(C3CCCCC3)CC(=O)N2CCC2=CCCCC2)cc1 (stereo unspecified) | inactive: 72%
25 | CCOc1ccc(-n2c(=O)c3sc4ccccc4c3n(Cc3cccc(C)c3)c2=O)cc1 | inactive: 130%
26 | Cc1ccc(OC(=O)c2cc(-c3ccc(Cl)cc3)on2)c(C)c1 | inactive: 93%
27 | Cc1cccc(N2CCN(C(=O)CCc3c(C)nc4c(c3C)c(=O)n(C)c(=O)n4C)CC2)c1C | inactive: 83%
28 | COC(=O)CN1C(=O)c2ccccc2NC1c1ccc(OC)cc1 (stereo unspecified) | inactive: 102%
29 | CC1CCC(NC(=O)c2ccc3c(c2)N(Cc2ccccc2F)C(=O)c2ccccc2S3=O)CC1 (stereo unspecified) | inactive: 96%
30 | CC1(C)OC(=O)C(=C2CCCCCN2)C(=O)O1 | inactive: 83%
31 | CCOc1ccc(CCNC(=O)Cn2ncn3c(cc4sc(C)cc43)c2=O)cc1OCC | inactive: 76%
32 | Clc1ccc(-c2cn3ncsc3n2)cc1 | inactive: 78%
33 | O=C(NCc1ccccc1)C(=O)NCC(c1ccc2c(c1)OCO2)N1CCOCC1 (stereo unspecified) | inactive: 79%
34 | COc1ccc2c(c1)sc1ncc(C(=O)NCc3ccc(Cl)cc3)c(=O)n12 | inactive: 73%
35 | CCN1CCN(c2oc(/C=C/c3ccc(OC)c(OC)c3)nc2C#N)CC1 | inactive: 80%
36 | Cc1ccc(CN2CCSc3ccc(C(=O)N4CCN(c5ccc(Cl)cc5)CC4)cc32)cc1 | inactive: 85%
37 | COc1cccc(CNC(=O)C(NS(=O)(=O)c2cccs2)C(C)C)c1 (stereo unspecified) | inactive: 94%
38 | COc1cccc(CNC(=O)c2ccc3nc(N4CCCCC4)sc3c2)c1OC | inactive: 73%

Row | SMILES | survival
39 | Cc1ccc(C)c2[nH]c(=O)c(C3NC(=O)c4ccccc4N3)cc12 (stereo unspecified) | inactive: 99%
40 | O=c1c2cccnc2n(Cc2ccccc2F)c(=O)n1Cc1ccc(F)cc1 | inactive: 95%
41 | CCCCN1C(=O)c2[nH]nc(-c3ccccc3O)c2C1c1cc(Br)c(O)c(OC)c1 (stereo unspecified) | active: 10%
42 | Cc1ccc(-n2c(C)cc(/C=C3\SC(=O)NC3=O)c2C)cc1 | inactive: 120%
43 | COc1ccc(NC(=O)Cn2c3ncccc3c(=O)n2-c2ccc(C)c(C)c2)c(OC)c1 | inactive: 136%
44 | CCCCc1nn2c(=O)cc(COC(=O)c3ccc(NC(=O)c4ccccc4Cl)cc3)nc2s1 | inactive: 82%
45 | O=S(=O)(Nc1ccc2nc(-c3ccc(F)cc3)oc2c1)c1ccccc1 | inactive: 33%
46 | CCOCCCNC(=O)C(c1ccc(OC)cc1)N(Cc1ccc2c(c1)OCO2)C(=O)c1ccc(NC(C)=O)cc1 (stereo unspecified) | inactive: 69%
47 | Cc1ccc2[nH]c(=O)c3cc(C(=O)N(C)c4ccc(Br)cc4)sc3c2c1 | inactive: 81%
48 | Cc1nnc(NC(=O)CSc2nc3c([nH]c4ccccc43)c(=O)n2-c2ccc(Cl)cc2)s1 | inactive: 75%
49 | Cc1cc(C)cc(NC(=O)c2cc(S(=O)(=O)NCCC3=CCCCC3)ccc2F)c1 | inactive: 80%
50 | Cc1ccc(NC(=O)c2cc(S(=O)(=O)N3CCCCC3)c[nH]2)cc1N(C)C | inactive: 87%
51 | CC(=O)Nc1cc(C(=O)NCc2ccccc2Cl)ccc1Sc1ccc(F)cc1 | inactive: 67%
52 | Cc1cccc(C(=O)Nc2ccc3oc(-c4cccc5c(Br)cccc45)nc3c2)c1 | inactive: 79%
53 | CCc1ccc(NC(=O)C2CCN(c3nc(-c4ccc(OC)cc4)no3)CC2)cc1 | inactive: 66%
54 | Cn1c(=O)[nH]c(=O)c2c1nc(N1CCCC1)n2CCSc1ncccn1 | inactive: 113%
55 | CCOc1ccc2nc(N3CCN(C(=O)c4ccc5c(c4)CCCC5)CC3)sc2c1 | inactive: 65%
56 | COc1ccc2c(c1)CC(C(=O)NCc1ccc(F)cc1)CO2 (stereo unspecified) | inactive: 45%
